# About 14,000 (4.5%) of roughly 310,000 compounds showed an effect of 50% or more. Effects have a minus sign here. This is one part of the list.
# Target: human ether-à-go-go-related gene (hERG) potassium channel (human, UniProt Q12809)
# Assay: primary screen, population patch clamp on CHO cells stably expressing hERG
# 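Also: peak tail current of the secondary pulse compared with the same well before compound.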
# Sequence of human ether-à-go-go-related gene (hERG) potassium channel (Q12809 whole entry, looked up): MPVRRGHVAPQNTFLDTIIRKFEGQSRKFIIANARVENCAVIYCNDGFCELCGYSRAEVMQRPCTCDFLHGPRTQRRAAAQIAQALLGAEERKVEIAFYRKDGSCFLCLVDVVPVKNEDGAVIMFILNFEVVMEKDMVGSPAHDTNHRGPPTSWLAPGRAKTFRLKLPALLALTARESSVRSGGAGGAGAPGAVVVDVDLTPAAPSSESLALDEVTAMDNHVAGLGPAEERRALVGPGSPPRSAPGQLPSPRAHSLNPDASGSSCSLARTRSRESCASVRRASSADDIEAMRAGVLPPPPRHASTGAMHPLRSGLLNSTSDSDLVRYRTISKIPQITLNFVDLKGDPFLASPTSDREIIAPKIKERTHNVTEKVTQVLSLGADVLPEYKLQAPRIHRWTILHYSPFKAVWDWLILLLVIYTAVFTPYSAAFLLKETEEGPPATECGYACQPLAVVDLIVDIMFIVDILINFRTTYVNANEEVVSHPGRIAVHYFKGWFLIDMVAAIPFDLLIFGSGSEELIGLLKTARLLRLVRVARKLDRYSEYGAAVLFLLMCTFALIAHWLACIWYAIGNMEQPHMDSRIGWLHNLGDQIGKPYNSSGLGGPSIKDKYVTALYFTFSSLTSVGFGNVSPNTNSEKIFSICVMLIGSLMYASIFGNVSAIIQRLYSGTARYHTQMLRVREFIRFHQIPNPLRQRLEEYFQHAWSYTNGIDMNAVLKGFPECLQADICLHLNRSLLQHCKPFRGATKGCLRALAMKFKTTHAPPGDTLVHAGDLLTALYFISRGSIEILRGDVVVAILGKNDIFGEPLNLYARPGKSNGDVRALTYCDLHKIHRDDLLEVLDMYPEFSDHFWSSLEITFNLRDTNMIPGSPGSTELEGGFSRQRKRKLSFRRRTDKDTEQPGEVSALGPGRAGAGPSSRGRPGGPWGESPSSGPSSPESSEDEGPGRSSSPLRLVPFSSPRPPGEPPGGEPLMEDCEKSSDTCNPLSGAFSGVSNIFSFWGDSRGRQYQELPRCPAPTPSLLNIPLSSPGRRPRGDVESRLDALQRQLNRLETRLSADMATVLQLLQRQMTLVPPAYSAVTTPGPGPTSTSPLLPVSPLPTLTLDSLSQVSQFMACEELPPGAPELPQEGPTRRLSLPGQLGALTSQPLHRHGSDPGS
row,Compound,"hERG current change (%, negative = inhibition) at 10uM"
1,Cc1ccc(NC(=O)Cn2nc(C)c3ccccc3c2=O)c(C)c1,10.2%
2,CSc1cccc(NC(=O)c2cnn3ccccc23)c1,-26.1%
3,CCC1(C)Cc2c(sc3c2c(=O)n(-c2ccccc2)c(=O)n3C)CO1 (stereo not shown),5.26%
4,CN1CCN(S(=O)(=O)c2ccc(NC(=O)Cc3cccs3)cc2)CC1,-11.4%
5,CCOC(=O)N1CCN(C(=O)c2cccn3c(=O)c4cc(Br)ccc4nc23)CC1,-68.2%
6,NC(=O)C1CCN(C(=O)c2cc3ccccc3cc2O)CC1,-1.13%
7,O=C(CSc1ccccc1)Nc1ccncc1,6.02%
8,CCCCCCN=C(C)c1ccccc1O,20.2%
9,CC(C)CC(c1nnnn1C(C)(C)C)N1CCN(Cc2ccccc2)CC1.Cl (stereo not shown),-30.1%
10,CC(C)CCNC(=O)c1cccc(C(=O)NCCC(C)C)c1,14.5%
11,CCOc1ccc(S(=O)(=O)N2CCCCC2)cc1NC(=O)CN1C(=O)NC(CC)(c2ccccc2)C1=O (stereo not shown),-15%
12,O=C(NCC1CCCO1)c1nn2cccnc2c1Cl (stereo not shown),21.3%
13,CNC(=O)c1c(C)nc(SCC(=O)NCc2ccc(OC)cc2)c(C#N)c1-c1ccco1,-15.1%
14,CCOC(=O)CC1C(=O)NCCN1C(=O)c1sc2ccccc2c1Cl (stereo not shown),0.151%
15,O=C(NCCO)c1ccc2c(c1)S(=O)(=O)c1ccccc1C2=O,-16.3%
16,Cc1nc(-c2ccc(O)c(O)c2)cs1,-14.8%
17,Cc1ccc(-c2ccc(/C=C(\C#N)C(=O)Nc3cc(C)nn3-c3ccccc3)o2)cc1,-3.49%
18,COc1ccc(Cn2cc(C(=O)c3ccccc3)c(=O)c3cc(OC)ccc32)cc1,-31.3%
19,Cn1cc(CNC(=O)/C=C/c2ccc(Cl)cc2)cn1,-4.23%
20,CCN(CC(=O)NCc1cccs1)C(=O)c1cccc(S(=O)(=O)NC)c1,-12.2%
21,COC(=O)N(C)c1ccc(C(O)(C(=O)OC)C(F)(F)F)cc1 (stereo not shown),15.9%
22,Cc1cc(/C=C(/C#N)c2nc3ccccc3[nH]2)c(C)n1-c1ccccc1C(=O)O,15.8%
23,CN(C)[C@@H]1C(=O)C(C(N)=O)=C(O)[C@@]2(O)C(=O)C3=C(O)c4c(O)cccc4[C@@](C)(O)[C@H]3[C@H](O)[C@@H]12,-0.336%

row,Compound,"hERG current change (%, negative = inhibition) at 10uM"
1,Cc1c(Cl)cnc(NC(=O)COC(=O)c2ccc3c(c2)OCO3)c1Cl,6.35%
2,COc1ccc(Br)cc1/C=N/NC(=O)CN1CCCCC1,-4.99%
3,CCCCCn1c(=O)c(C(=O)Nc2ccccc2S(N)(=O)=O)c(O)c2ccccc21,16%
4,CCCN(CCC)C(=O)c1ccc2c(c1)OCO2,1.58%
5,N#CC1=C(N)N2C(=C(C#N)C1c1ccccc1)Sc1ccccc12 (stereo not shown),14.5%
6,COc1ccc(/C=C/C(=O)c2ccc3c(c2)OCO3)c(OC)c1,2.4%
7,CC(C)NC(=O)CC1OC(=O)c2ccccc21 (stereo not shown),25.9%
8,CSc1ccc(/C=N/n2nnnc2N)cc1,-4.34%
9,O=C(COC(=O)c1ccc(Cl)c(S(=O)(=O)NCc2ccccc2)c1)NCC1CCCO1 (stereo not shown),-53%
10,O=C1Nc2ccccc2/C1=C\C(=O)c1ccccc1,11.9%
11,Cc1cnc(CNC(=O)c2ccc(OC3CCN(C(=O)C4CC4)CC3)cc2)cn1,10.3%
12,CC(C)CNC(=O)COC(=O)CCC(=O)c1ccc(Cl)cc1,-3.86%
13,O=C1OC(/C=C/c2ccccc2)=NC/1=C/c1ccco1,1.82%
14,C=CCSc1nc(C)c2cc(C)cc(C)c2n1,9.52%
15,Cc1c(-c2csc(N)n2)c2ccccc2n1C,7.81%
16,CC1(C(=O)O)CCC(C(=O)NC2CCCCC2)C1(C)C (stereo not shown),8.09%
17,Cc1nc2ncnn2c(C)c1CCC(=O)NCc1ccco1,-6.62%
18,CCCCC1CCC(C(=O)N2CCOCC2)CC1 (stereo not shown),-3.15%
19,Clc1ccc(-c2nc(-c3ccncc3)no2)c(Cl)c1,5.58%
20,CCn1c2c(c(C)cc1=O)C(=O)CC(C)(C)C2,19.9%
21,COc1ccc(C(=O)NNC(=O)CSc2nnc(C(C)C)n2C)cc1,6.06%
22,CCOc1ccc(N/C=C/C(=O)c2ccccc2)cc1,13.9%
23,O=C(Nc1ccc(Cl)c(S(=O)(=O)Nc2ccccc2Cl)c1)c1cccs1,-11%

row,Compound,"hERG current change (%, negative = inhibition) at 10uM"
1,CC1(C)Cc2c(C#N)c(NCCO)nc(-c3ccco3)c2CO1,-4.23%
2,Cc1c(C(=O)COC(C)(C)C)[nH]c2ccccc12,4.85%
3,Cc1cc2cc(C)c3nnc(SCC(=O)NCc4ccc5c(c4)OCO5)n3c2cc1C,-20.1%
4,COc1cc(C2N(c3ccc(F)cc3)C(=O)C3CCCN32)cc(OC)c1OC (stereo not shown),0.933%
5,COCC1CCCCN1C(=O)c1ccc2oc(CCc3ccccc3)nc2c1 (stereo not shown),-5.52%
6,C=CCN=C1NN=C(c2ccc3c(c2)OCCO3)CS1,30.4%
7,CC1=C(C(=O)Nc2ccccc2)SCCO1,14.7%
8,CCCn1c(SCN2C(=O)c3ccccc3C2=O)nc2cc(Cl)ccc2c1=O,16.5%
9,O=C(Nc1ccncc1)c1ccc2ncsc2c1,6.23%
10,O=C(Cn1nnc2c(cnn2-c2ccc(F)cc2)c1=O)Nc1ccccc1C(F)(F)F,8.18%
11,CCC(C)C(NS(=O)(=O)c1ccc(C)cc1)C(=O)Oc1ccc2c3c(c(=O)oc2c1)CCC3 (stereo not shown),-0.525%
12,Cc1ccc(N2C(S)=C(C#N)C(=O)NC2c2ccco2)cc1 (stereo not shown),16.7%
13,CCC(=O)N(CC(=O)Nc1sc(C)c(C)c1C(N)=O)C1CCCC1,0.759%
14,COc1cc(/C=N/NC(=O)CSc2n[nH]c(=O)[nH]c2=O)cc(OC)c1O,28.8%
15,CCOc1ccc(Cl)cc1/C=C1/C(=O)ON=C1C,-6.65%
16,COc1ccc(/C=C2\SC(=Nc3ccccc3)NC2=O)cc1,19.7%
17,COc1ccc(S(=O)(=O)N(C)c2ccc(C(=O)Nc3ccccc3C(=O)N3CCOCC3)cc2)cc1OC,18%
18,O=C(NCCc1ccccc1)c1nc(CS(=O)(=O)c2ccc(Cl)cc2)no1,7.72%
19,COC(=O)CCCN=C1SCCN1Cc1ccccc1,-2.13%
20,Cc1cc(NS(=O)(=O)c2ccccc2)no1,0.414%
21,Clc1ccccc1/C=N/Nc1cc(N2CCOCC2)ncn1,23.9%
22,COC(=O)C1=C(c2c(C)noc2C)C[C@@H]2CC[C@H]1N2C(=O)NCCOc1ccccc1,5.03%
23,CN(CC(=O)N1CCCCCC1)S(=O)(=O)c1ccc(Br)cc1,-21.8%

row,Compound,"hERG current change (%, negative = inhibition) at 10uM"
1,CC(C)(C)OC(=O)N[C@@H](C(=O)OC(C)(C)C)c1ccccc1,3.46%
2,CCC1Oc2ccccc2N(CC(=O)NCCCN2CCN(Cc3ccccc3)CC2)C1=O (stereo not shown),-42%
3,O=C(NCc1csc(-c2cccs2)n1)Nc1ccc(F)cc1F,7.58%
4,O=C(CCc1ccccc1)NC(=S)Nc1ccc(S(=O)(=O)N2CCOCC2)cc1,5.25%
5,CCN(CC)CCn1c2ccccc2c2nc3ccccc3nc21,-7.76%
6,CC1=CN2C(=N)/C(=C/c3ccc(C)o3)C(=O)N=C2S1,5.91%
7,CCOC(=O)c1c(NC(=O)C(F)(OC)C(F)(F)F)sc2c1CCN(C)C2 (stereo not shown),-17.9%
8,NC(=O)c1ccc(NC(=O)COC(=O)c2cc(S(=O)(=O)N3CCOCC3)ccc2N2CCCCC2)cc1,4.09%
9,O=C(CCC(=O)N1CCN(c2ccc(F)cc2)CC1)c1ccccc1,-12.7%
10,CNc1nc(C)c([N+](=O)[O-])c(Nc2ccc(OC)cc2)n1,15.6%
11,O=C(Nc1ccccc1)c1cccnc1NCCc1ccccc1,3.15%
12,O=C(NCc1ccc(N2CCCC2=O)cc1)c1cn(Cc2ccccc2)nn1,0.548%
13,CC(C)c1nc2ccc(NC(=O)C34CC5CC(CC(C5)C3)C4)cc2[nH]1,4.9%
14,COc1ccc(CNC(C)Cc2cccs2)cc1 (stereo not shown),-2.79%
15,COc1ccc(C2=NS(=O)(=O)N(C)C(C(=O)NC3CCCC3)=C2)cc1,2.43%
16,CN1CCN(c2ccc(N)c(N3CCN(C)CC3)c2)CC1,13.4%
17,COC(=O)C(C(=O)OC)c1ccc(-n2cccc2)cc1,7.59%
18,CC(=O)Nc1ccc(S(=O)(=O)NC2(C(F)(F)F)NC(=O)N(C3CCCC3)C2=O)cc1 (stereo not shown),9.98%
19,CC(NS(=O)(=O)c1ccc(Br)cc1)C(c1cccs1)N1CCN(C)CC1 (stereo not shown),-53.2%
20,Cc1ccc(NCc2nc3ccccc3n2CCOc2ccccc2)cc1,3.82%
21,N/C(=N\OC(=O)CCc1ccccc1)c1ccc(Cl)cc1,10.3%
22,COc1ccc(-c2ncccc2OC(=O)C23CC4CC(CC(C4)C2)C3)cc1.Cl.O,-2.35%

# — paper PMC4336329 (PLoS ONE, 2015)
